GI50 and TGI data for 59 compounds are collected here from PubChem BioAssay (NCI).

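Protocol summary: plate cells (96-well), add compound at 5 concentrations, incubate 48 h, interpolate endpoints linearly. GI50: concentration for 50% inhibition of growth. TGI is the concentration that stops growth completely.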

The subject of this assay is NCI-H322M lung. Description: NCI-60 cell line screen, 48 h.
Consider `Oc1nc(N2CCOCC2)sc1/C=C1\C=Nc2ccccc21`, for which the GI50 is greater than 100 µM and the TGI was greater than 100 µM.
For `COc1ccc(C(=O)/C=C/c2cc(-c3ccc(OC)c(OC)c3)n[nH]2)cc1OC`, the GI50 was 2.67 µM and the TGI was 8.23 µM.
In turn, `Cc1ccc(NC(=O)C2C3C=CC(O3)C2C(=O)O)cc1` (stereo unspecified) registered a TGI greater than 100 µM.
Turning to `Cc1c(-c2ccccc2)c(C#N)c2nnn(-c3ccc(Cl)cc3)c(=O)n12`, the TGI was greater than 100 µM.
The compound `CCCCCCCCCCC/C=C(/C(=O)CCCO[Si](C)(C)C(C)(C)C)C(=O)OC` registered a TGI greater than 100 µM.
As to `COc1cc2c(c(OC)c1OC)-c1ccc(SC)c(=O)cc1[C@@H](NC(=O)c1cccc([N+](=O)[O-])c1)CC2`, the TGI is 65.1 µM.
Regarding `C/C(O)=C(/C=N/C(=S)Nc1ccccc1)C(=O)Nc1ccccc1C`, the TGI is greater than 100 µM.
For `COC(=O)CCc1n(Cc2ccc3ccccc3c2)c2ccccc2[n+]1Cc1ccc2ccccc2c1`, the GI50 was 1.76 µM and the TGI was found to be 5.82 µM.
With `Cc1cccc2c(=O)c3c(sc12)c(NCCCNCCO)nc1ccccc13`, the GI50 was 1.66 µM and the TGI stood at 3.15 µM.
Compound `COC(=O)CN(CC(=O)NCCNC(=O)OC(C)(C)C)C1CCCCC1N(CC(=O)OC)CC(=O)OC` (stereo unspecified) gave a TGI greater than 100 µM.
In the case of `COc1cccc(/C=C2\CCC(CN(C)C)C2=O)c1` (stereo unspecified), the TGI amounted to 32.1 µM.
In turn, `O=C1CCCc2ccc([N+](=O)[O-])c(O)c21` showed a TGI greater than 100 µM.
In the case of `COc1ccc(-c2cnc(-c3ccc(OC)cc3)n2-c2cc(OC)c(OC)c(OC)c2)cc1`, the GI50 is 28.2 µM and the TGI was 70.3 µM.
Compound `Nc1nc(-c2cccnc2)cc(-c2cc(-c3cccnc3)nc(N)n2)n1` returned a TGI greater than 100 µM.
Regarding `O=C1OC2(c3ccc(O)cc3Oc3cc(O)ccc32)c2cccc3cccc1c23`, the GI50 was 25.1 µM and the TGI is greater than 100 µM.
Consider `C/C(=N\O)c1ccc(OCc2cc(C(F)(F)F)cc(C(F)(F)F)c2)cc1`, for which the TGI was greater than 100 µM.
Compound `NCCCN(CCCCN(CCCN)Cc1ccccc1)Cc1ccccc1` displayed a TGI greater than 100 µM.
`O=S(=O)(CC(Cl)c1ccccc1)c1nc2ccccc2s1` (stereo unspecified) came in with a TGI of 32.5 µM.
For the compound `Cc1cc(Cl)ccc1NC(=O)/C(=N\NC(C)(C)C)C(C#N)c1nc(-c2ccc([N+](=O)[O-])cc2)cs1` (stereo unspecified), the TGI was greater than 100 µM.
`CCN(CC)CCCNc1ccc([N+](=O)[O-])c2nc3ccccc3c(N)c12`: the TGI stood at 1.91 µM.
Same read-out and setting: next, `CC1(C)C(=O)/C=C\C(=O)C(C)(C)C2=CC=C(O2)C(C)(C)C(=O)C(Br)C(Br)C(=O)C(C)(C)C2=CC=C1O2` (stereo unspecified): greater than 100 µM.
For the compound `COC(=O)[C@H](Cc1cn(C)cn1)NC(=O)[C@H](CC(C)C)NC(=O)Nc1cc(C(F)(F)F)cc(C(F)(F)F)c1`, the GI50 is greater than 10 µM and the TGI is greater than 10 µM.
As for `C[n+]1c2ccccc2c(N=[N+]=[N-])c2ccccc21`, the TGI is greater than 10 µM.
For `CCOc1ccc(-c2nc3ccc(-c4nc5ccc(N6CCN(C)CC6)cc5[nH]4)cc3[nH]2)cc1`, the GI50 was 1.13 µM and the TGI was 2.51 µM.
On to `Cc1cc(C)n(-c2nc(-n3nc(C)cc3C)nc(-n3nc(C)cc3C)n2)n1`, for which the TGI is greater than 100 µM.
For the compound `Cc1ccc(-c2cc(C(=O)Nc3ccc(S(=O)(=O)N4CCCCC4)cc3)[nH]n2)c(O)c1`, the GI50 was greater than 100 µM and the TGI was greater than 100 µM.
Turning to `Cc1ccc(/C(=N/NS(=O)(=O)c2cc(C)c(Cl)cc2Cl)Sc2cc(Cl)c(C)cc2S(N)(=O)=O)cc1`, the GI50 was greater than 100 µM and the TGI is greater than 100 µM.
With `COc1cc(OC)c(C(=O)/C=C/c2ccc(C#N)cc2)c(OC)c1`, the GI50 was 1.25 µM and the TGI came to 5.47 µM.
`O=c1[nH]c2nc3ccccc3c(=O)n2/c1=C/c1ccccc1` returned a TGI greater than 100 µM.
As for `COc1cccc([C@@H]2C/C(=N\NC(=O)C(=O)N[C@@H](C)c3ccccc3)c3ccccc3N2)c1`, the TGI is greater than 100 µM.
With `O=c1[nH]c(-c2ccc(Cl)c(Cl)c2)cn1-c1ccc(Cl)cc1`, the GI50 is 26.5 µM and the TGI was found to be 80.4 µM.
Compound `O=c1c2ccccc2n2c(-c3ccccc3O)nnc2n1-c1ccccc1` showed a TGI greater than 100 µM.
For the compound `CC(=O)Nc1ccc(S(=O)(=O)c2nnc(NC(C)=O)s2)cc1`, the TGI is greater than 100 µM.
On to `O=CCCn1[nH]c(=O)ccc1=O`, for which the TGI is greater than 100 µM.
As for `Cc1[nH]c2ncn3[nH]c(=S)nc3c2c1Cc1ccccc1`, the TGI was greater than 100 µM.
`COCN1C(=O)[C@@H]2C[C@@H](O)CN2C(=O)c2ccccc21` showed a TGI greater than 100 µM.
As to `CCN1/C(=C/C(C)=C/c2sc3ccc4ccccc4c3[n+]2CC)Sc2ccc3ccccc3c21`, the GI50 was 0.292 µM and the TGI came to 1.23 µM.
Taken in the same sequence, the figures for `COc1cc2c(cc1OC)[C@@H]1C(=O)c3ccc4c(c3O[C@@H]1CO2)C[C@H](C(C)C)O4` were 27.2 µM and greater than 100 µM.
Take `COc1ccc(OC)c(N2CC(O)=C(c3nc4ccccc4s3)C2=N)c1`: the GI50 is 74.7 µM and the TGI was greater than 100 µM.
On to `O=C1/C(=C/c2ccccc2Cl)COc2ccc(Br)cc21`, for which the TGI was greater than 100 µM.
`N#CC(O)CCOCc1ccccc1` (stereo unspecified) yielded a TGI greater than 100 µM.
Turning to `CC(=O)NC1=NC(=O)/C(=C/c2ccccc2Cl)N1C`, the TGI is greater than 100 µM.
`CC(=O)C1C(=O)C(=O)N(c2ccc([N+](=O)[O-])cc2[N+](=O)[O-])C1=O` (stereo unspecified) yielded a TGI greater than 100 µM.
As for `COC(=O)c1c2c(c(C)[n+]([O-])c1C)C(=O)C(NCc1ccccc1)=CC2=O`, the GI50 was 2.59 µM and the TGI turned out to be 8.15 µM.
With `Nc1nc(Sc2ccc([N+](=O)[O-])c3nonc23)c2ncn(C3OC(CO)C(O)C3O)c2n1` (stereo unspecified), the GI50 was greater than 56.9 µM and the TGI is greater than 100 µM.
`Nc1ccc(Oc2ccc(C34CC5CC(C3)CC(c3ccc(Oc6ccc(N)cc6C(F)(F)F)cc3)(C5)C4)cc2)c(C(F)(F)F)c1`: the TGI was 44.6 µM.
`COc1ccc(C)c2sc(N(Cc3cccnc3)C(=O)c3ccc(C#N)cc3)nc12`: the GI50 is greater than 100 µM and the TGI is greater than 100 µM.
`Cc1[nH]c(C(=O)Nc2ccc(C(=O)NCCN)cc2OC(C)C)c(Cl)c1Cl`: the GI50 is 1.61 µM and the TGI turned out to be 2.98 µM.
`Clc1ccc(-c2cnc3c(-c4ccnc(N5CCNCC5)c4)cnn3c2)cc1`: the GI50 is 1.92 µM and the TGI is 3.39 µM.
In the case of `COc1cc2c(/C=C3\C(=O)N(C)c4ccccc43)c[nH]c2cc1C`, the GI50 was 8.18 µM and the TGI was greater than 100 µM.
`O=C1NC(=O)C(CCC(=O)c2cccc3ccccc23)C(=O)N1` yielded a TGI greater than 100 µM.
Same read-out and setting: next, `O=C(O)CCC(NC(=O)c1ccc(Oc2nc3ccccc3nc2C(=O)O)cc1)C(=O)O` (stereo unspecified): greater than 100 µM.
Same read-out and setting: the figure for `CCNCC(=O)Nc1ccc2c(c1)C(=O)c1ccc(NC(=O)CNCC)cc1C2=O` is 6.56 µM; for `COc1ccc(C2(CC(C)C)CCNC2)cc1OC` (stereo unspecified) it is greater than 100 µM; for `O=C1CCC2(c3ccc(Cl)cc3)Nc3ccccc3N12` (stereo unspecified) it is greater than 100 µM.
The compound `COc1ccc2c(=O)c3ccoc3[nH]c2c1` had a TGI greater than 100 µM.
On the same count and under the same terms, next, `CC(=O)NC(CCCCNCc1ccccc1)C(=O)NCc1ccccc1` (stereo unspecified): greater than 100 µM.
Regarding `CCCCCCOC(=O)CC1=C(C)/C(=C/c2[nH]c(-c3ccc[nH]3)cc2OC)N=C1C`, the GI50 is 0.538 µM and the TGI came to 2.16 µM.
`CN(C)CC1(C)CC/C(=C\c2ccc(Cl)cc2)C1=O` (stereo unspecified) displayed a TGI greater than 100 µM.
